Results from patent US20150299764A1, “IMMOBILISED CYCLIN-DEPENDENT KINASE 4 FUSION PROTEINS AND USES THEREOF” (UNIVERSITE LIBRE DE BRUXELLES, priority 2012, published 2015).

Test system: 48-kDa fragment (amino acid 773-928) of pRb
Assay: pRb kinase assay on HEK293T cell extract bound to streptavidin-coated sepharose beads
Format: biochemical
Details: transiently transfected HEK293T cells, P-Rb T826 immunoblot
Procedure: In order to verify if the transgenes expressed in HEK293T cells after transient transfection could be immobilized on streptavidin-coated sepharose bead and were enzymatically active, HEK293T cells were cultivated and transfected with the indicated plasmids as described in Example 12.
After transfection, cells were washed with PBS and lysed on ice in 1 ml NP-40 lysis buffer as described in Example 11. The homogenized (glass/glass) cellular lysate was sonicated 3 times and stored at −20° C. […] After 3 h, beads bound with transgene are washed three times with cold NP-40 lysis buffer without inhibitors before enzymatic activities are measured.
The pRb kinase assay was performed on the cellular extract bound to the streptavidin-coated sepharose beads as described previously (Coulonval et al., 2003, Exp. Cell Res., 291, 135-149). […] Proteins were resolved by SDS-PAGE and transferred on PVDF membranes (Perkin Elmer) before the phosphorylation on T826 of the pRb fragment was detected using the phosphor-specific pRb (T826) antibody (Thermo Fisher). […]
The pRb kinase assay was performed on the cellular extract bound to the streptavidin-coated sepharose beads (GE Healthcare) as described previously (Coulonval et al., 2003, Exp. Cell Res., 291, 135-149). […] Total GST-Rb load of the membranes was quantitated using the mouse anti-GST antibody (Pierce). […]

B1: D1L1K4: cyclin D1 and CDK4 connected by the linker L1, SEQ ID NO. 7 (protein)
chain: [about 300 residues not given here]ASKGGGGSGGGGSGGGGSMATSRYEPVAEIGVGAYGTVYKARDPHSGHFVALKSVRVPNGGGGGGGLPISTVREVALLRRLEAFEHPNVVRLMDVCATSRTDREIKVTLVFEHVDQDLRTYLDKAPPPGLPAETIKDLMRQFLRGLDFLHANCIVHRDLKPENILVTSGGTVKLADFGLARIYSYQMALTPVVVTLWYRAPEVLLQSTYATPVDMWSVGCIFAEMFRRKPLFCGNSEADQLGKIFDLIGLPPEDDWPRDVSLPRGAFPPRGPRPVQSVVPEMEESGAQLLLEMLTFNPHKRISAFRALQHSYLHKDEGNPE
In the case of B1, the “Rb kinase activity of the immobilized fusion protein” value is reported as “active”.
